According to PubChem BioAssay AID624172 (National Center for Advancing Translational Sciences (NCATS), 2012):
Out of some 380,000 compounds screened, about 25 (0.007%) were called active. Inconclusive results, whose numbers are uncertain, are shown with a selection of clear calls. Calls come from the whole dose curve; as a rule, active = well fitted activation curve with a large enough effect; inconclusive = small, poorly fitted or top-dose-only effect; inactive = no such curve, though single readings can be large or run the other way. Potencies of inconclusive entries are left out as doubtful fits.

biological target: Glucagon-like peptide 1 receptor (Homo sapiens) (UniProt P43220); assay: qHTS of GLP-1 Receptor Agonists; details: HEK293 GLP-1R CRE-luciferase, luminescence, 4-6 h, cells express a hypersensitive GLP-1R form; activation: at 45.6 µM (top of the series) unless noted; for activation: % of control where 0% means no effect
Sequence of UniProt P43220 (P43220 whole entry, looked up): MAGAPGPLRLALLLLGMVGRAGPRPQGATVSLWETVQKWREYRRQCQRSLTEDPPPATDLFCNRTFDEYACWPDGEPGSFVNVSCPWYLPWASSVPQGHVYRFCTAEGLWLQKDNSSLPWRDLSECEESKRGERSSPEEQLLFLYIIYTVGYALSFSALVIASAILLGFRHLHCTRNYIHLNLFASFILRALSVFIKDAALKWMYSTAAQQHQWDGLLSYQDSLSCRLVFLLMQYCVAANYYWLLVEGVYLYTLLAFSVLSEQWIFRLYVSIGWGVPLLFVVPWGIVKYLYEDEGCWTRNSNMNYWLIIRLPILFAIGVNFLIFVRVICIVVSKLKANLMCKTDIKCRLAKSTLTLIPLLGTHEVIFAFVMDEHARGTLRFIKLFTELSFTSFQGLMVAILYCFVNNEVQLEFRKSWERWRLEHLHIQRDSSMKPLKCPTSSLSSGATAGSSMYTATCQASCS
Potency is the fitted concentration of half-maximal effect; tags give direction and shape of the fitted curve.

| SMILES | Potency | activation |
| --- | --- | --- |
| O=C(c1cnn(-c2cccc(F)c2)c1)c1ccccc1O | inconclusive [activator, partial curve, poor fit] |  |
| CCN1CCN(Cc2ccc(NC(=O)c3cc(NC(=O)c4cc(-c5ccc(OC)cc5)n[nH]4)cc(OC)c3)cc2C(F)(F)F)CC1 |  | inactive: 8.51% |
| COc1ccc(OC)c(-c2nnc3n2N=C(c2ccc(OC)c(OC4CCCC4)c2)CS3)c1 |  | inactive: 16.7% |
| O=C(OCCN1C(=O)c2ccccc2C1=O)c1cc(S(=O)(=O)N2CCOCC2)ccc1F | inconclusive [activator, single point] |  |
| C/C(=N\NC(=S)NCc1ccccc1)c1ccccc1 | inconclusive [activator, partial curve, poor fit] |  |
| COc1ccc(-c2nc(C#N)c(N3CCc4ccccc4C3)o2)cc1OC | inconclusive [activator, partial curve] |  |
| Cc1ccc(Cn2nc3c(cc2=O)CCc2ccccc2-3)cc1 | inconclusive [activator, single point] |  |
| Cc1ccc(C(=O)Nc2cc(C(C)C)c(O)c(C(C)C)c2)cc1 |  | inactive: -12.3% |
| Nc1ccc(OCc2ccccc2)cc1 | inconclusive [activator, partial curve] |  |
| N#Cc1ccccc1NC(=O)c1ccc2c(Cl)c3c(nc2c1)CCCC3 |  | inactive: 22.6% |
| COc1ccc(CCC(=O)OCC(=O)c2ccc[nH]2)cc1OC | inconclusive [activator, single point] |  |
| COc1cccc(-c2cnc3c(NC(C)=O)cc(-c4ccncc4)cn23)c1 | inconclusive [activator, partial curve, poor fit] |  |
| NC(N)=NS(=O)(=O)c1ccc(NC(=S)NC(=O)/C=C/c2ccc(F)cc2)cc1 |  | inactive: -1.01% |
| CN(C)C(=O)c1cccc(-c2cccc(-c3nc(C(=O)NCc4ccccc4)cc4c3[C@H](CCO)N(S(=O)C(C)(C)C)C4)c2)c1 (some centres undefined) |  | inactive: 12.7% |
| CCCCCCn1c(=O)n2n(c1=O)C[C@]1(OC(=O)NCc3ccccc3)CN(S(=O)(=O)c3ccc(C)cc3)C[C@]1(O)C2 |  | inactive: 6.76% |
| C#CCSc1nnc(-c2cccc3ccccc23)o1 | inconclusive [activator, partial curve, poor fit] |  |
| CC(=O)OCC(=O)[C@H]1CC[C@H]2[C@@H]3CCC4=CC(=O)CC[C@]4(C)[C@H]3CC[C@]12C | inconclusive [activator, partial curve, poor fit] |  |
| Cc1nc2sc(C#N)c(N)c2c2c1CCCC2 | inconclusive [activator, partial curve, poor fit] |  |
| COC(=O)c1c(NC(=O)Cc2cccs2)sc(C(=O)N2CCCCC2)c1C | inconclusive [activator, partial curve, poor fit] |  |
| CC(OC(=O)c1ccccc1C(=O)N(C)C1CCCCC1)C(=O)NC1(C#N)CCCCC1 (centres undefined) |  | inactive: 6.82% |
| COc1cccc(C2=CC(=O)C[C@H](c3ccc(OC)c(OC)c3)C2)c1 | inconclusive [activator, partial curve] |  |
| Cc1oc2nc(SCC(=O)NC3CCCCC3)nc(N)c2c1C | inconclusive [activator, single point] |  |
| CCOc1c(C)cc(-c2ncccc2O)cc1C | inconclusive [activator, single point] |  |

| SMILES | Potency | activation |
| --- | --- | --- |
| CCN(CC)c1ccc(/C=N/NC(=O)c2c(Cl)c(C)nn2C)cc1 |  | inactive: 7.9% |
| Fc1ccccc1COc1ccc(Br)cc1CNCc1cccnc1 | inconclusive [activator, single point] |  |
| C=C1CCC(O)C/C1=C/C=C1\CCC[C@]2(C)[C@@H]([C@H](C)/C=C/[C@H](C)C(C)C)CC[C@@H]12 (some centres undefined) |  | inactive: 16.6% |
| CC(=O)N1CCc2cc(Br)cc(S(=O)(=O)CCC(=O)N3CCN(c4ccccc4)CC3)c21 |  | inactive: -1.31% |
| COc1ccccc1C(=O)Nc1ccc(S(=O)(=O)N2CCN(C)CC2)cc1 | inconclusive [activator, single point] |  |
| CCCCc1cc2c(cc1NC(=O)CN1CCCCC1)OCCO2 | inconclusive [activator, single point] |  |
| COc1ccc(N2CCN(S(=O)(=O)c3cccc4cccnc34)CC2)cc1 | inconclusive [activator, partial curve, poor fit] |  |
| Cc1cc(N)n(-c2nc(-c3cccnc3)nc3ccccc23)n1 | inconclusive [activator, partial curve, poor fit] |  |
| C/C(=C\C(=O)c1ccccc1)Nc1ccc(Cl)c(Br)c1 |  | inactive: 4.93% |
| O=c1c2ccccc2nc(-c2ccccc2)n1Cc1ccco1 | inconclusive [activator, single point] |  |
| S=C(Nc1cccc2ccccc12)N1CCN(c2ncccn2)CC1 | inconclusive [activator, partial curve, poor fit] |  |
| O=C(CCC(=O)c1ccc(Cl)cc1)NCc1ccccc1 |  | inactive: 9.19% |
| CC(C)(C)NC[C@@H](O)c1ccc(O)c(CO)n1 |  | inconclusive: 39.6% [activator] |
| Cc1cc(OCC(=O)OCC(=O)N(C)Cc2ccccc2C)ccc1Cl |  | inactive: 11% |
| COCCNC(=O)[C@@H]1CSC2c3ccccc3C(=O)N21 (some centres undefined) |  | inactive: 0.381% |
| Cc1ccc(CNC(=O)CSc2ncc(S(=O)(=O)c3ccc(C)c(Cl)c3)c(=O)[nH]2)cc1 |  | inactive: -3.98% |
| Cc1c(C(=O)C(=O)N2CCN(Cc3ccc4c(c3)OCO4)CC2)c2ccccc2n1C | inconclusive [activator, partial curve, poor fit] |  |
| COc1ccc(NC(=O)c2cccnc2)cc1OCC(C)C | inconclusive [activator, partial curve, poor fit] |  |
| COc1ccc(CCN(C)C(=O)CCCN2C(=O)c3cccc4cccc(c34)C2=O)cc1OC | inconclusive [activator, partial curve] |  |
| CCOc1ccc2c(c1)c(N=Nc1cccc(C(=O)O)c1)c(O)n2C |  | inactive: 5.49% |
| COc1cc(Br)cc(/C=N/N(CCO)C2=NS(=O)(=O)c3ccccc32)c1OC | inconclusive [activator, partial curve, poor fit] |  |
| COc1ccc(Nc2nc(-c3ccncc3)nc3ccccc23)cc1 | inconclusive [activator, partial curve, poor fit] |  |
| COc1cc2[nH]c(=S)nc(NCc3ccccc3)c2cc1OC |  | inactive: 7.22% |

| SMILES | Potency | activation |
| --- | --- | --- |
| Cc1ccc2c(CN(C)Cc3cccc(F)c3)cc(=O)oc2c1C | inconclusive [activator, single point] |  |
| C=CCn1c(SCc2c(C)noc2C)nc2ccccc2c1=O | inconclusive [activator, partial curve, poor fit] |  |
| COc1ccc(C(CNC(=O)c2oc3ccccc3c2C)N2CCCC2)cc1 (centres undefined) | inconclusive [activator, partial curve] |  |
| CC1=C/C(=N\Nc2ccccc2[N+](=O)[O-])CC(C)(C)C1 |  | inconclusive: 63.4% [activator] |
| CN1C(C(=O)Nc2ccc(OC(F)(F)F)cc2)=CC(c2ccc3c(c2)OCO3)=NS1(=O)=O |  | inactive: 7.71% |
| COc1ccc(N/C=C/C(=O)c2ccc(OC)c(OC)c2)cc1 | inconclusive [activator, partial curve] |  |
| C/C(=N\NC(=O)NC1CCCCC1)c1ccc(OC(F)F)cc1OC(F)F | inconclusive [activator, single point] |  |
| CN(CC(=O)Nc1cccc(F)c1)C(=O)CCc1nc2sc3c(c2c(=O)[nH]1)CCCC3 |  | inactive: -1.45% |
| COc1ccc(N/C=C2/Sc3ccccc3NC2=O)cc1 | inconclusive [activator, partial curve, poor fit] |  |
| CCOC(=O)c1c(NC(=O)Cc2cccs2)sc(C)c1C | inconclusive [activator, single point] |  |
| CCN=C1S/C(=C\c2sccc2C)C(=O)N1CC | inconclusive [activator, partial curve] |  |
| CCCc1ccc2oc(C(=O)N3CCC(COC)C3)c(C)c2c1 (centres undefined) | inconclusive [activator, single point] |  |
| COC(=O)C(C)Sc1ccc2nnc(-c3ccc(F)cc3)n2n1 (centres undefined) | inconclusive [activator, partial curve, poor fit] |  |
| COc1cc2c(cc1OC)-c1cc(NC3CC3)nc(=O)n1CC2 | inconclusive [activator, partial curve, poor fit] |  |
| CCNc1nc(ON=C(C)C)nc(N(C)C)n1 |  | inactive: -0.727% |
| Cc1nc2ccccc2c2oc(C(=O)N3CCC(C)CC3)cc12 | inconclusive [activator, partial curve, poor fit] |  |
| COc1cc(SC)ccc1C(=O)NC1CCCc2ccccc21 (centres undefined) | inconclusive [activator, single point] |  |
| COc1ccc(C(C)=O)cc1COc1ccc(Cl)c(C)c1 | inconclusive [activator, single point] |  |
| COc1ccc(C(=O)CSc2nnc(C3CC3)n2N)cc1 | inconclusive [activator, single point] |  |
| Cc1ccc(Nc2c(-c3ccccn3)nc3ccc(C)cn23)cc1 |  | inactive: -5.39% |
| CNc1nc2c3ccccc3n(C(C)=O)c2s1 | inconclusive [activator, partial curve, poor fit] |  |
| O=C(c1ccccc1S(=O)(=O)NCc1ccccc1)N1CCCCC1 |  | inactive: 6.74% |
| CSc1ncccc1C(=O)OCCCC(=O)c1ccc(F)cc1 | inconclusive [activator, single point] |  |
